Measurements: EP4810038A1, “METHOD FOR TREATING ALK-POSITIVE OR ROS1-POSITIVE NON-SMALL CELL LUNG CANCER” (Shenzhen TargetRx Co., Ltd., priority 2023, dated 2025)

Tested on: intracranial measurable lesions of ALK-positive advanced NSCLC
Test: Phase II single-arm trial, 60 mg QD: intracranial tumor efficacy (IRC assessment)
[1] = IRC, 44 subjects with intracranial measurable lesions
[2] = intracranial BOR, IRC assessment, full analysis set, 44 subjects with intracranial measurable target lesions, data cutoff May 20, 2024

With `[2H]C([2H])([2H])n1nc2c(c1C#N)-c1cnc(N)c(c1)O[C@H](C)c1cc(F)ccc1C(=O)N(C)C2` [compound A, (10R)-7-amino-12-fluoro-2-(methyl-d3)-10,16-dimethyl-15-oxo-10,15,16,17-tetrahydro-2H-8,4-(metheno)pyrazolo[4,3-h][2,5,11]benzoxadiazacyclotetradecine-3-carbonitrile] the “IC-ORR, n (%)” value (IRC assessment, full analysis set, 44 subjects with intracranial measurable target lesions, 95% CI 38.85, 69.61, data cutoff May 20, 2024) was 24 (54.5) n (%), the “IC-DCR, n (%)” value (IRC assessment, full analysis set, 44 subjects with intracranial measurable target lesions, 95% CI 69.93, 93.36, data cutoff May 20, 2024) was 37 (84.1) n (%) and the IC-DCR [1] was 84.1%. For the same compound, the IC-ORR [1] was 54.5%, the “intracranial best objective response CR” value [1] was “No subjects” and the “intracranial best objective response PR” value [1] was 54.5%. The “BOR, n (%) CR” value [2] was 0 n (%), the “BOR, n (%) NE” value [2] was 0 n (%) and the “BOR, n (%) PD” value [2] was 7 (15.9) n (%). For the same compound, the “BOR, n (%) PR” value [2] was 24 (54.5) n (%) and the “BOR, n (%) SD” value [2] was 13 (29.5) n (%).
